Assay results: PMC4336329 (PLoS ONE, 2015)
In all, about 310,000 compounds went through this assay and about 2,200 (0.71%) showed an effect of 50% or more. The effect is printed as a negative number. This is one part of the list.

What follows are compounds tested against human ether-à-go-go-related gene (hERG) potassium channel (human, UniProt Q12809) (assay: primary screen, population patch clamp on CHO cells stably expressing hERG).
Sequence of human ether-à-go-go-related gene (hERG) potassium channel (Q12809 whole entry, looked up): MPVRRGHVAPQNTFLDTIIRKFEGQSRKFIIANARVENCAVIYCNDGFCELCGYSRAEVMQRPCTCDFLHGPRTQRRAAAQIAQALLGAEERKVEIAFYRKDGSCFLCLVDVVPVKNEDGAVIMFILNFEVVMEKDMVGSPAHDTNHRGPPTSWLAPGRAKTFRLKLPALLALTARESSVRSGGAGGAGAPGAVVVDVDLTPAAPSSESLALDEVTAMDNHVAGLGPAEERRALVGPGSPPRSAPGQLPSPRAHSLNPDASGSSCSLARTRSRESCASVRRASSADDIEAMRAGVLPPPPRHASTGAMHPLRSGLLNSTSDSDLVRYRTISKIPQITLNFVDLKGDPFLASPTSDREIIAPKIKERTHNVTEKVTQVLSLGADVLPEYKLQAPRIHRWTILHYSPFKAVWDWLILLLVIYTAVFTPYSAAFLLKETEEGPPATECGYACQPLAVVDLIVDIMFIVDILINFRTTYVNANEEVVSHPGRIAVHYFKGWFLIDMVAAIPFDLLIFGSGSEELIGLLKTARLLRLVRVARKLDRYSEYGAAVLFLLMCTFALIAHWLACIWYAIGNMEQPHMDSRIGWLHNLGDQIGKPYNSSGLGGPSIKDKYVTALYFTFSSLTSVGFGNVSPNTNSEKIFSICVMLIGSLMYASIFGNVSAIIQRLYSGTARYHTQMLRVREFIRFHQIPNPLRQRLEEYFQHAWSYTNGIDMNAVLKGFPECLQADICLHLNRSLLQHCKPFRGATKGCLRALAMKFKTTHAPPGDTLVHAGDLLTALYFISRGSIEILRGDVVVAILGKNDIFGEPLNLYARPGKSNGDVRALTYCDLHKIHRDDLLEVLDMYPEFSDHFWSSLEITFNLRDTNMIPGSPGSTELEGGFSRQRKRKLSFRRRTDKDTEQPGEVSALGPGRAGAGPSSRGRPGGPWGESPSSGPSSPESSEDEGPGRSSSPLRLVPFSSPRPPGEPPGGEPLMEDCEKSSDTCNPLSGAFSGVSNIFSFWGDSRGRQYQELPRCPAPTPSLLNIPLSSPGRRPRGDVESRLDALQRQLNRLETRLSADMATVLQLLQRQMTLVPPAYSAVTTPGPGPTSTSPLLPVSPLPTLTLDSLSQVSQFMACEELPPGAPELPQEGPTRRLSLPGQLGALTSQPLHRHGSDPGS
For COCc1nnc(NC(=O)c2cccc(NC(=O)C(C)C)c2)s1, the “hERG current change (%, negative = inhibition) at 1uM” value was 9.84%.
COc1cc(/C=C/CO)ccc1O[C@@H]1O[C@H](CO)[C@@H](O)[C@H](O)[C@H]1O was tested, and the “hERG current change (%, negative = inhibition) at 1uM” value was 16%.
O=c1[nH]cnc2[nH]ncc12 was tested, and the “hERG current change (%, negative = inhibition) at 1uM” value was 18.1%.
For CC1Cc2nc(SCC(=O)NCCc3ccccc3)n(C)c(=O)c2S1 (stereo not shown), the “hERG current change (%, negative = inhibition) at 1uM” value was -5.45%.
With CCCOP(=O)(c1ccc(N(C)C)cc1)C(Nc1ccccc1)c1ccc(N(C)C)cc1 (stereo not shown) the “hERG current change (%, negative = inhibition) at 1uM” value was 9.27%.
COc1ccccc1C(C)NCC(=O)NCC(=O)Nc1ccc(F)c(F)c1F (stereo not shown) was tested, and the “hERG current change (%, negative = inhibition) at 1uM” value was 14.7%.
With COc1ccc(NC(=S)Nc2cc(-c3ccccc3)[nH]n2)cc1Cl the “hERG current change (%, negative = inhibition) at 1uM” value was 10.4%.
For COC(=O)c1cn(CCOc2ccc(C)cc2)c2ccccc12, the “hERG current change (%, negative = inhibition) at 1uM” value was 8.89%.
In the case of O=C(CSc1nnc(CNC(=O)c2ccccc2F)o1)NCC1CCCO1 (stereo not shown), the “hERG current change (%, negative = inhibition) at 1uM” value was 9.87%.
In the case of NC(=O)c1ccc(NC(=O)CSC2=Nc3ccccc3C3CC=NN23)cc1 (stereo not shown), the “hERG current change (%, negative = inhibition) at 1uM” value was 9.56%.
In the case of CCOc1ccc(-c2c(C#N)c(N)nc3c2c(=O)n(C)c(=O)n3C)cc1OC, the “hERG current change (%, negative = inhibition) at 1uM” value was 18.9%.
C#CCOCCOCCOCCNc1nc(N2CCOCC2)nc(N2CCN(C(=O)CCCCCCCCCCNC(=O)[C@H]([C@@H](C)CC)n3cc(CCCCN=C(N)N)nn3)CC2)n1 was tested, and the “hERG current change (%, negative = inhibition) at 1uM” value was 5.4%.
CCOC(=O)c1c(-c2cccs2)csc1NC(=O)COC(=O)c1c(C)noc1C was tested, and the “hERG current change (%, negative = inhibition) at 1uM” value was 1.72%.
In the case of NC(=O)NC(=O)COC(=O)c1ccc(Cl)c(S(=O)(=O)N(Cc2ccccc2)c2ccc(Cl)cc2)c1, the “hERG current change (%, negative = inhibition) at 1uM” value was 5.92%.
For CC1=Nn2c(nnc2-c2ccccc2)SC1, the “hERG current change (%, negative = inhibition) at 1uM” value was 6.74%.
For Cc1oncc1C(=O)NC(C)C, the “hERG current change (%, negative = inhibition) at 1uM” value was 2.68%.
For NS(=O)(=O)c1ccc(CCNS(=O)(=O)c2ccc3c(c2)NC(=O)CO3)cc1, the “hERG current change (%, negative = inhibition) at 1uM” value was 12.8%.
For O=c1cc[nH]c2c1ccc1cccnc12, the “hERG current change (%, negative = inhibition) at 1uM” value was 9.46%.
In the case of O=C(Nc1ccc(S(=O)(=O)Nc2ncccn2)cc1)c1ccccc1, the “hERG current change (%, negative = inhibition) at 1uM” value was 13.4%.
COc1ccc2nc(SCC(=O)O)nc(C)c2c1 was tested, and the “hERG current change (%, negative = inhibition) at 1uM” value was 7.04%.
With Cc1csc2nc(CNC(=O)C3CC=CCC3C(=O)O)cn12 (stereo not shown) the “hERG current change (%, negative = inhibition) at 1uM” value was 15.2%.
For COc1ccc(C(C)NC(=O)CC23CC4CC(CC(C4)C2)C3)cc1 (stereo not shown), the “hERG current change (%, negative = inhibition) at 1uM” value was 5.09%.
O=C1NC2(CCCCC2)CO1 was tested, and the “hERG current change (%, negative = inhibition) at 1uM” value was 14.6%.
In the case of CCCCn1c(=NC(=O)c2cccnc2)c(C#N)cc2c(=O)n3cccc(C)c3nc21, the “hERG current change (%, negative = inhibition) at 1uM” value was 8.7%.
For CCN(CC)CCN(Cc1cc2cc(C)ccc2[nH]c1=O)C(=S)Nc1ccccc1, the “hERG current change (%, negative = inhibition) at 1uM” value was -23.4%.
CCN(CC)CCN(C(=O)c1ccc2c(c1)OCCO2)c1nc2cc3c(cc2s1)OCO3.Cl was tested, and the “hERG current change (%, negative = inhibition) at 1uM” value was -18.3%.
For CC(=O)OC1CC(C)(C)N(OC(=O)c2ccc(N)cc2)C(C)(C)C1, the “hERG current change (%, negative = inhibition) at 1uM” value was 1.52%.
In the case of CCN(CC)C(=O)C(=O)c1cn(CC(=O)N2CCc3ccccc3C2)c2ccccc12, the “hERG current change (%, negative = inhibition) at 1uM” value was 0.281%.
With CC1Cc2cc(S(=O)(=O)N3CCC(C(=O)Nc4ccccn4)CC3)ccc2N1C(=O)C1CCC1 (stereo not shown) the “hERG current change (%, negative = inhibition) at 1uM” value was 11.7%.
With COc1cc(-c2nc(-c3ccc4c(c3)-c3ccccc3S4(=O)=O)c(-c3ccccc3)[nH]2)cc(OC)c1OC the “hERG current change (%, negative = inhibition) at 1uM” value was 5.24%.
In the case of Cc1cccc(CSC2=NN3CCCC(=O)N=C3S2)c1, the “hERG current change (%, negative = inhibition) at 1uM” value was 6.6%.
CCCS(=O)(=O)N1CCC(C(=O)c2cccc(C(F)(F)F)c2)CC1 was tested, and the “hERG current change (%, negative = inhibition) at 1uM” value was -1.12%.
COc1ccc(C(C(=O)NC2CCCC2)N(CCCO)C(=O)Cn2nnc(-c3ccc(C)o3)n2)cc1 (stereo not shown) was tested, and the “hERG current change (%, negative = inhibition) at 1uM” value was 15.2%.
With Nc1nc2ccc(S(=O)(=O)N3CCCCC3)cc2s1 the “hERG current change (%, negative = inhibition) at 1uM” value was 24.3%.
With CC(=O)Nc1ccccc1-c1nc2ccccc2nc1OCC(=O)c1ccc2ccccc2c1 the “hERG current change (%, negative = inhibition) at 1uM” value was 17.8%.
In the case of Cc1[nH]c(=O)[nH]c(=O)c1S(=O)(=O)N1CCCC(C(=O)NCCC2=CCCCC2)C1 (stereo not shown), the “hERG current change (%, negative = inhibition) at 1uM” value was 13.8%.
CC(C)(C)OC(=O)N/N=C/c1cccc([N+](=O)[O-])c1 was tested, and the “hERG current change (%, negative = inhibition) at 1uM” value was 11.1%.
With Clc1cc(Br)ccc1OCCCNCc1ccccc1.O=C(O)C(=O)O the “hERG current change (%, negative = inhibition) at 1uM” value was 8.16%.
In the case of COc1cc(C)c(Cl)cc1S(=O)(=O)n1ccnc1, the “hERG current change (%, negative = inhibition) at 1uM” value was 7.84%.
With CCC(CC)C(=O)Nc1nnc(S(=O)(=O)N2CCc3ccccc32)s1 the “hERG current change (%, negative = inhibition) at 1uM” value was 8.76%.
In the case of COc1cc(CC(=O)OCC(=O)N2CC(C)CC(C)C2)cc(OC)c1OC (stereo not shown), the “hERG current change (%, negative = inhibition) at 1uM” value was 23.9%.
Cc1ccc2c(c1)CC1(CN2C)C(=O)NC(=O)N(C(C)C)C1=O (stereo not shown) was tested, and the “hERG current change (%, negative = inhibition) at 1uM” value was 19.3%.
For CCN(CC)c1nc(Nc2ccccc2)nc(Oc2ccc(=O)[nH]n2)n1, the “hERG current change (%, negative = inhibition) at 1uM” value was -4.59%.
With O=C(CN1C(=O)NC2(CCCCC2)C1=O)N1CCN(S(=O)(=O)c2ccc(F)cc2)CC1 the “hERG current change (%, negative = inhibition) at 1uM” value was 13.1%.
For O=C(NCCc1ccccc1)C1=CCN(S(=O)(=O)c2ccccc2)CC1, the “hERG current change (%, negative = inhibition) at 1uM” value was 14.8%.
For CCOC(=O)C1C2C=CC3(CN(c4cccc(Cl)c4)C(=O)C13)O2 (stereo not shown), the “hERG current change (%, negative = inhibition) at 1uM” value was 12.3%.
For COc1ccc(CNC(=O)c2ccncc2)cc1, the “hERG current change (%, negative = inhibition) at 1uM” value was 11.6%.
For CCOc1ccc2c(c1)c(=O)c(S(=O)(=O)c1ccc(CC)cc1)cn2C, the “hERG current change (%, negative = inhibition) at 1uM” value was 20.8%.
With CCCCC(c1nnnn1CC1CCCO1)N1CCN(Cc2ccccc2)CC1.Cl (stereo not shown) the “hERG current change (%, negative = inhibition) at 1uM” value was 5.35%.
O=C(N=C1SC2CS(=O)(=O)CC2N1c1ccccc1)c1cccc([N+](=O)[O-])c1 (stereo not shown) was tested, and the “hERG current change (%, negative = inhibition) at 1uM” value was 9.3%.
With O=C(N/N=C/c1ccc(O)cc1)c1cc[n+](Cc2ccccc2)cc1.[Cl-] the “hERG current change (%, negative = inhibition) at 1uM” value was 7.47%.
Cc1ccc(NC(=O)CS(=O)c2ccccc2N)c(C)c1 (stereo not shown) was tested, and the “hERG current change (%, negative = inhibition) at 1uM” value was 30.5%.
With COc1ccccc1N1CCN(C(=O)c2ccc(-c3nc4ccccc4s3)o2)CC1 the “hERG current change (%, negative = inhibition) at 1uM” value was 8.11%.
With COc1ccccc1C(=O)N/C(=C\c1ccc(Br)cc1)C(=O)NCCC(=O)O the “hERG current change (%, negative = inhibition) at 1uM” value was 10.6%.
CCOc1ccc(C(=O)N/N=C/c2ccc(-c3ccc(S(=O)(=O)Nc4ncccn4)cc3)o2)cc1 was tested, and the “hERG current change (%, negative = inhibition) at 1uM” value was 19.7%.
